# Out of some 51,000 compounds screened, about 600 (1.2%) were called active. The inconclusive results got no clear call from the source; some entries with a clear call stand among them for comparison. Rule as the data show it: active = potency below about 11 µM; inconclusive = mostly about 12 µM to 25 µM; inactive = weaker than that;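 the screen sought inhibitors and activators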. No potency is given beside an inconclusive call; the fits are too rough.
# Tested on: pyruvate kinase (Bacillus stearothermophilus)
# Assay: Pyruvate Kinase
# Settings: purified pyruvate kinase, luminescence ATP production; ribose 5-phosphate activator present at AC10
# Outline: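 Partially purified B. stearothermophilus pyruvate kinase (10 nM final) with 2 mM PEP, 0.1 mM ADP and 0.7 nM ribose 5 phosphate in 50 mM imidazole pH 7.2, KCl, MgCl2; 2 h at room temperature, ATP formed read by luciferase luminescence.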
# Potency is read from the fitted curve at half-maximal effect.
row,Compound,Potency
1,CCCOc1ccc(-c2cnc(SCC(N)=O)nc2N)cc1,inconclusive [decreasing]
2,CC(C)c1ccc(S(=O)(=O)N2CCN(C(=O)c3cccc(F)c3)CC2)cc1,inactive: > 57 µM
3,C=CCSc1nncn1/N=C/c1ccc(OC)cc1,inactive
4,CC1CN(c2nc3c(c(=O)n(Cc4ccc(Cl)c(Cl)c4)c(=O)n3C)n2C)CC(C)O1 (stereo not given),inconclusive [increasing]
5,Cc1c(-c2nc(N)nc(Nc3ccccc3)n2)oc2ccccc12,inconclusive [decreasing]
6,Cc1ccc(S(=O)(=O)Nc2cc(C(=O)NCCN3CCCC3)ccc2N2CCCCC2)cc1,inconclusive [increasing]
7,CCOC(=O)c1c(C)[nH]c2cc(Br)c(O)cc12,inconclusive [decreasing]
8,Cc1ccccc1C(=O)Nc1ccc2c(c1)OCO2,inconclusive [decreasing]
9,Cc1nn(Cc2ccc(C(=O)Nc3nccs3)cc2)c(C)c1Cl,active: 3.05 µM
10,Clc1ccc(-c2nnc(-c3ccco3)o2)cc1,active: 4.02 µM
11,COc1ccc2c(c1OC)C(=O)N(c1cccc(C(F)(F)F)c1)C2,inactive
12,FC(F)(F)C12CC(c3ccccc3)=NCCN1CCN2 (stereo not given),inactive: > 57 µM
13,Cc1cccc(-c2noc(-c3ccc(F)cc3)n2)c1,active: 10.4 µM
14,c1ccc(C2Nc3ccccc3-c3nc4ccccc4n32)nc1 (stereo not given),inconclusive [decreasing]
15,CSc1nncc(-c2ccc(F)cc2)n1,inconclusive [decreasing]
16,CN1C(=O)C2(N=c3ccccc3=N2)c2ccccc21,inconclusive [decreasing]
17,Cc1ccc(C)c(Cn2nnc3c(=O)[nH]c(C(=O)NCc4ccco4)nc32)c1,inconclusive [increasing]
18,c1ccc(OCCSc2nnc3sc4ccccc4n23)cc1,inconclusive [decreasing]
19,COC(=O)c1cc(OC)c(OC)cc1NC(=O)C1CCC(=O)N1S(=O)(=O)c1ccc(C)cc1 (stereo not given),inconclusive [increasing]
20,Cc1nc2ccc(N)cc2c(=O)n1Cc1ccc(Cl)cc1,inactive: > 57 µM
21,CCOc1ccc(-c2nc(C#N)c(N3CCN(CC)CC3)o2)cc1,inconclusive [decreasing]
22,Cc1ccc(S(=O)(=O)N2CCN(c3nc(C)c4c(c3C#N)CC(C)(C)OC4)CC2)cc1,inconclusive [increasing]
23,COc1ccc(C2=C(O)C(C)N(c3ccccc3)C2=N)cc1OC (stereo not given),inactive: > 57 µM
24,O=C(Cc1c(O)c2ccccc2[nH]c1=O)NCc1cccc(F)c1,inactive: > 57 µM

row,Compound,Potency
1,O=C(CN1C(=O)c2ccccc2C1=O)NCC1COc2ccccc2O1 (stereo not given),inconclusive [increasing]
2,Cc1ccc(-c2nc(-c3cccnc3)no2)c(C)c1,inconclusive [decreasing]
3,Cc1cc(C)nc(SCc2nnc(SCc3ccccc3Cl)o2)n1,inactive: > 11.4 µM
4,O=C(c1cc(-c2ccncc2)nc2ccc(Br)cc12)N1CCN(c2ccccn2)CC1,inconclusive [decreasing]
5,COc1ccc(-c2nc(-c3ccc(Br)cc3)no2)c(OC)c1,active: 6.34 µM
6,Cc1ccccc1-c1nn2c(-c3ccccc3)nnc2s1,inconclusive [decreasing]
7,CCC(OC(=O)c1cccs1)C(=O)NCc1ccc2c(c1)OCO2 (stereo not given),inactive: > 57 µM
8,CCc1c(C)c2cc(Cl)c(O)c(CN(CC)CC)c2oc1=O,inactive: > 57 µM
9,Cc1ccc2nc(-c3ccc(SCC(=O)Nc4cc(C)on4)nc3)[nH]c2c1,active: 2.74 µM
10,COc1ccc(-c2coc3cc(O)cc(O)c3c2=O)cc1,inconclusive [decreasing]
11,OCC(O)CN1CCN(c2ccccc2)CC1 (stereo not given),inactive: > 25.6 µM
12,Cc1c(Cl)cccc1-n1ccnc1SCC(=O)O,inconclusive [increasing]
13,CCOc1ccc(-c2cc(C(=O)NCCCN3CCN(CC)CC3)c3ccccc3n2)cc1,active: 10 µM
14,Cc1cc(-c2ccc(Cl)cc2)n2nc(N)nc2n1,inconclusive [decreasing]
15,Cc1cccc(-n2ncc3c(N4CCCC4)ncnc32)c1,active: 5.37 µM
16,Cc1cccn2c(=O)c3cc(C(=O)NC(C)C)c(=N)n(Cc4ccncc4)c3nc12,inactive: > 57 µM
17,O=C(Nc1cccc(-c2nc3cccnc3s2)c1)c1ccco1,inconclusive [decreasing]
18,Cc1ccc(S(=O)(=O)N2CCN(C(=O)C3COc4ccccc4O3)CC2)cc1C (stereo not given),inconclusive [increasing]
19,O=C(O)c1ccc(NS(=O)(=O)c2ccc(Cl)c(Cl)c2)cc1O,inconclusive [increasing]
20,Cc1ccc(S(=O)(=O)NCCn2c(C)cc3ccccc32)cc1,inconclusive [increasing]
21,N#Cc1nc(-c2ccco2)oc1N1CCc2ccccc2C1,inactive
22,COc1cc2cc(CN(C(=O)Nc3ccccc3)C3CCCC3)c(=O)[nH]c2cc1OC,inactive: > 57 µM
23,COc1ccc(CCNC(=O)COC(=O)c2ccco2)cc1OC,inactive: > 57 µM
24,COC(=O)c1sccc1NC(=O)c1ccc(Cl)s1,inactive: > 57 µM

row,Compound,Potency
1,O=C(C1CCCN1S(=O)(=O)c1ccc(Cl)c(Cl)c1)N1CCCCC1 (stereo not given),inconclusive [increasing]
2,O=C(c1ccc2c(c1)OCO2)N1CCCc2ccccc21,inconclusive [increasing]
3,COCCn1c(SCC(=O)Nc2nc(C)c(Cl)cc2Cl)nc2ccccc21,inconclusive [increasing]
4,COc1cccc(NC(=O)N(CCCN2CCOCC2)C(C)c2cc3cccc(OC)c3o2)c1 (stereo not given),inactive: > 57 µM
5,O=C(Nc1ccc2c(c1)OCCO2)C1CCN(C(=O)c2ccc(Br)cc2)CC1,inconclusive [increasing]
6,c1cnc(Oc2ccc(-c3nnco3)cc2)cn1,inactive: > 57 µM
7,O=C(Nc1ccc(CN2CCCCC2)cc1)c1ccc2c(c1)OCO2,inactive: > 57 µM
8,O=C(CSc1nnc(-c2cnccn2)n1Cc1ccco1)c1ccc2ccccc2c1,inconclusive [increasing]
9,Nc1ccc2oc(=O)c3ccccc3c2c1,inconclusive [decreasing]
10,Cn1c(C(=O)NCCN2CCc3ccccc3C2)cc2c(=O)[nH]c3ccccc3c21,active: 9.21 µM
11,CC1Cc2ccccc2N1C(=O)CCNS(=O)(=O)c1cccc2nsnc12 (stereo not given),inconclusive [increasing]
12,CCOC(=O)C(C(=O)N1CCOCC1)C1CCCCC1 (stereo not given),inconclusive [increasing]
13,CCOC(=O)N1CCN(S(=O)(=O)c2ccc(OC)c3ccccc23)CC1,inconclusive [increasing]
14,Cn1cccc1C(=O)OCc1csc(-c2ccccc2)n1,active: 9.32 µM
15,CCCCN1CCc2c([nH]c3ccc(C)cc23)C1=O,inactive: > 57 µM
16,NC(=O)c1cc2ccc(O)cc2oc1=Nc1ccccc1,inconclusive [decreasing]
17,Cc1cc(NC(=O)NC2CCCN2S(=O)(=O)c2ccc(Cl)cc2)no1 (stereo not given),inconclusive [increasing]
18,Cc1ccc(-n2cc(C(C)(C)C)[nH]c2=S)cc1,inconclusive [increasing]
19,O=C(Cc1ccc(Cl)c(Cl)c1)OCC(=O)c1ccc[nH]1,inconclusive [increasing]
20,Cc1cc(-n2c(C)cc(C(=O)CN3C(=O)NC4(CCCCCC4)C3=O)c2C)no1,inactive: > 57 µM
21,O=C(Nc1ccc(Cl)cn1)c1cc2ccccc2o1,inconclusive [decreasing]
22,S=c1[nH]nc(-c2ccco2)n1-c1cccc2ccccc12,inconclusive [increasing]
